Data: the GPR68 mutational scans of Howard et al. (2025)
Scores whose standard error is large were omitted. The source holds two more conditions with little spread; they are left out. In variant names, del marks residues removed and ins residues inserted between the two positions. For part of these data: The data file names ogerin without a concentration.

B1: GPR68, Q15743 (parent)
chain: MGNITADNSSMSCTIDHTIHQTLAPVVYVTVLVVGFPANCLSLYFGYLQIKARNELGVYLCNLTVADLFYICSLPFWLQYVLQHDNWSHGDLSCQVCGILLYENIYISVGFLCCISVDRYLAVAHPFRFHQFRTLKAAVGVSVVIWAKELLTSIYFLMHEEVIEDENQHRVCFEHYPIQAWQRAINYYRFLVGFLFPICLLLASYQGILRAVRRSHGTQKSRKDQIQRLVLSTVVIFLACFLPYHVLLLVRSVWEASCDFAKGVFNAYHFSLLLTSFNCVADPVLYCFVSETTHRDLARLRGACLAFLTCSRTGRAREAYPLGAPEASGKSGAQGEEPELLTKLHPAFQTPNSPGSGGFPTGRLA

Tests used:
[1] = variants of: B1; assay: cAMP reporter score (Enrich2 score, wild type = 0); higher = more signal; HEK293T, FACS bins
[2] = variants of: B1; assay: surface expression score (Enrich2 score, wild type = 0); higher = more signal; HEK293T, FACS bins

Variant	cAMP reporter score ([1]; pH 5.5)	cAMP reporter score ([1]; pH 6, modulator: ogerin)	cAMP reporter score ([1]; pH 6.5, modulator: ogerin)	surface expression score [2]	cAMP reporter score ([1]; pH 6)
MGNITADNSSMSCTIDHTIHQTLAPVVYVTVLVVGFPANCLSLYFGYLQIKARNELGVYLCNLTVADLFYICSLPFWLQYVLQHDNWSHGDLSCQVCGILLYENIYISVGFLCCISVDRYLAVGHPFRFHQFRTLKAAVGVSVVIWAKELLTSIYFLMHEEVIEDENQHRVCFEHYPIQAWQRAINYYRFLVGFLFPICLLLASYQGILRAVRRSHGTQKSRKDQIQRLVLSTVVIFLACFLPYHVLLLVRSVWEASCDFAKGVFNAYHFSLLLTSFNCVADPVLYCFVSETTHRDLARLRGACLAFLTCSRTGRAREAYPLGAPEASGKSGAQGEEPELLTKLHPAFQTPNSPGSGGFPTGRLA [A124G]	-0.608	-0.654	-1.14	-1.29	
MGNITADNSSMSCTIDHTIHQTLAPVVYVTVLVVGFPANCLSLYFGYLQIKARNELGVYLCNLTVADLFYICSLPFWLQYVLQHDNWSHGDLSCQVCGILLYENIYISVGFLCCISVDRYLAVMHPFRFHQFRTLKAAVGVSVVIWAKELLTSIYFLMHEEVIEDENQHRVCFEHYPIQAWQRAINYYRFLVGFLFPICLLLASYQGILRAVRRSHGTQKSRKDQIQRLVLSTVVIFLACFLPYHVLLLVRSVWEASCDFAKGVFNAYHFSLLLTSFNCVADPVLYCFVSETTHRDLARLRGACLAFLTCSRTGRAREAYPLGAPEASGKSGAQGEEPELLTKLHPAFQTPNSPGSGGFPTGRLA [A124M]	-0.091	0.229	-0.652	-1.52	-0.221
MGNITADNSSMSCTIDHTIHQTLAPVVYVTVLVVGFPANCLSLYFGYLQIKARNELGVYLCNLTVADLFYICSLPFWLQYVLQHDNWSHGDLSCQVCGILLYENIYISVGFLCCISVDRYLAVHHPFRFHQFRTLKAAVGVSVVIWAKELLTSIYFLMHEEVIEDENQHRVCFEHYPIQAWQRAINYYRFLVGFLFPICLLLASYQGILRAVRRSHGTQKSRKDQIQRLVLSTVVIFLACFLPYHVLLLVRSVWEASCDFAKGVFNAYHFSLLLTSFNCVADPVLYCFVSETTHRDLARLRGACLAFLTCSRTGRAREAYPLGAPEASGKSGAQGEEPELLTKLHPAFQTPNSPGSGGFPTGRLA [A124H]	-0.893	-1.3		-0.445	-0.214
MGNITADNSSMSCTIDHTIHQTLAPVVYVTVLVVGFPANCLSLYFGYLQIKARNELGVYLCNLTVADLFYICSLPFWLQYVLQHDNWSHGDLSCQVCGILLYENIYISVGFLCCISVDRYLAVKHPFRFHQFRTLKAAVGVSVVIWAKELLTSIYFLMHEEVIEDENQHRVCFEHYPIQAWQRAINYYRFLVGFLFPICLLLASYQGILRAVRRSHGTQKSRKDQIQRLVLSTVVIFLACFLPYHVLLLVRSVWEASCDFAKGVFNAYHFSLLLTSFNCVADPVLYCFVSETTHRDLARLRGACLAFLTCSRTGRAREAYPLGAPEASGKSGAQGEEPELLTKLHPAFQTPNSPGSGGFPTGRLA [A124K]	-1.24	-0.466		-1.08	-1.1
MGNITADNSSMSCTIDHTIHQTLAPVVYVTVLVVGFPANCLSLYFGYLQIKARNELGVYLCNLTVADLFYICSLPFWLQYVLQHDNWSHGDLSCQVCGILLYENIYISVGFLCCISVDRYLAVLHPFRFHQFRTLKAAVGVSVVIWAKELLTSIYFLMHEEVIEDENQHRVCFEHYPIQAWQRAINYYRFLVGFLFPICLLLASYQGILRAVRRSHGTQKSRKDQIQRLVLSTVVIFLACFLPYHVLLLVRSVWEASCDFAKGVFNAYHFSLLLTSFNCVADPVLYCFVSETTHRDLARLRGACLAFLTCSRTGRAREAYPLGAPEASGKSGAQGEEPELLTKLHPAFQTPNSPGSGGFPTGRLA [A124L]	-0.789	-2.29		-0.424	-1.15
